The values that follow come from paper PMC4336329 (PLoS ONE, 2015).

Hit rate of the full screen: of about 310,000 compounds, about 14,000 (4.5%) showed an effect of 50% or more. The effect is printed as a negative number. The list shows a part of the results.
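Further: peak tail current of the secondary pulse compared with the same well before compound.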

In this assay the target is human ether-à-go-go-related gene (hERG) potassium channel (human, UniProt Q12809). The experiment in a line: primary screen, population patch clamp on CHO cells stably expressing hERG.
Chain of human ether-à-go-go-related gene (hERG) potassium channel (Q12809 whole entry, looked up): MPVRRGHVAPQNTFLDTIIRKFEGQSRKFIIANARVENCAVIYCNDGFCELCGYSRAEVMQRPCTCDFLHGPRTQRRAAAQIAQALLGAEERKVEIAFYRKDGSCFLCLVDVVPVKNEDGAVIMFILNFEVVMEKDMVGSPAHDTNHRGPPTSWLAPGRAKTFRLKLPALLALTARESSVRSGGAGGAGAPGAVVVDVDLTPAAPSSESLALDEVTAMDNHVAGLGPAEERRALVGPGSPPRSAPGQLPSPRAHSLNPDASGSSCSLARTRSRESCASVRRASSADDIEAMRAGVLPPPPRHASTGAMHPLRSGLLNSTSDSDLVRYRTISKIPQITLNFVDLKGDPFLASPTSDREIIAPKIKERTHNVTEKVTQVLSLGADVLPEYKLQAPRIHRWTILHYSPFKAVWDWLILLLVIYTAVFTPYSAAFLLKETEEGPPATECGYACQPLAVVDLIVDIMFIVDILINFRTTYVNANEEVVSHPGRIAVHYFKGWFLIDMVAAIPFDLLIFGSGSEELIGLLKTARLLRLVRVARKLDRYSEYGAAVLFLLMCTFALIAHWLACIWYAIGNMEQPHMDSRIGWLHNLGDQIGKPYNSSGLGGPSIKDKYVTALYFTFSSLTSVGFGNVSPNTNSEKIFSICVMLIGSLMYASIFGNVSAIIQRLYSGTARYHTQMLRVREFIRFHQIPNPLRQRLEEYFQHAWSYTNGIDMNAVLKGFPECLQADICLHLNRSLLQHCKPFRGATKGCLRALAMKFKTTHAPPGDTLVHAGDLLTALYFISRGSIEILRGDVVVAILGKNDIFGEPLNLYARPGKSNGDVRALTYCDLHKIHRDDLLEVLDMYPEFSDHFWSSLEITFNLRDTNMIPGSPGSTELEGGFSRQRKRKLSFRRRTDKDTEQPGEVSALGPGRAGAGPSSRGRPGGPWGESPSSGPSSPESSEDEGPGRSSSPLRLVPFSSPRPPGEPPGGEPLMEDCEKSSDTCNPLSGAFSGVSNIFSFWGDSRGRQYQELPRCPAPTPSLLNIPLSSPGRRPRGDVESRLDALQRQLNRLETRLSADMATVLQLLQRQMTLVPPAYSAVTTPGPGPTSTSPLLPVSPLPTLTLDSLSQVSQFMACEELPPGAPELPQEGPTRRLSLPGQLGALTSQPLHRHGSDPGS
`Cc1ccccc1NC(=O)Cc1nc(COC(=O)Cc2ccccc2)cs1`: the “hERG current change (%, negative = inhibition) at 10uM” value is listed as -14.2%. Regarding `COC(=O)CCC(=O)OC1(C)C(=O)C2=CN(Cc3ccccc3)C(c3ccc(OC)cc3)=CC2=C(Br)C1=O` (centres unmarked), the “hERG current change (%, negative = inhibition) at 10uM” value turned out to be 2.01%. Under `CCn1c(C(=O)N2CCCC(C(=O)NCCc3ccc(C)cc3)C2)cc2sccc21` (centres unmarked) stands -45.2%; under `C=CCNC(=O)C1CC(=O)N(c2ccc(OCc3ccc(F)cc3)cc2)C1` (centres unmarked), 12.2%.

On to `Cc1nn(-c2ncc(C(F)(F)F)cc2Cl)c(=O)n1-c1cccc(F)c1`, for which the “hERG current change (%, negative = inhibition) at 10uM” value is -0.241%.

For the compound `CCOC(=O)c1cnc2c(Cl)cc(Cl)cc2c1NCCCN1CCOCC1`, the “hERG current change (%, negative = inhibition) at 10uM” value is reported as -4.47%. As to `COc1cc(OC)cc(C(=O)N(CN2CCCC2=O)c2ccccc2OC)c1`, the “hERG current change (%, negative = inhibition) at 10uM” value is -9.07%. Under `C/C(=N\NC(=O)CCC(=O)Nc1ccc(C)c(C)c1)c1cccs1` stands 23.1%; under `Nc1nc(Br)c2c(F)cccc2c1-c1ccc(F)cc1`, -1.07%; under `CCn1c(SCCOc2ccc(Cl)cc2)nnc1-c1cccs1`, -53.8%. Under `CC(=O)NC(CC(=O)OCc1ccc([N+](=O)[O-])cc1)c1ccccc1` (centres unmarked) stands -63.1%; under `COc1cc(/C=N/NC(=O)c2cccc(N3CCCC3=O)c2)ccc1O`, 14.4%; under `Cc1ccc(N(C(=O)Cn2nnc(-c3ccccc3)n2)C(C(=O)NC2CCCCC2)c2ccccn2)cc1C` (centres unmarked), 12.1%. Turning to `OCCC1CN(Cc2nc3ccccc3s2)CCN1C1CCCCC1` (centres unmarked), the “hERG current change (%, negative = inhibition) at 10uM” value is on record as -60%.

For the compound `CCCCNC(=O)/C(C#N)=C/c1cccnc1`, the “hERG current change (%, negative = inhibition) at 10uM” value was 5.91%. Turning to `COc1ccc(NC(=O)C(OC(=O)c2ccc([N+](=O)[O-])o2)c2ccccc2)cc1Cl` (centres unmarked), the “hERG current change (%, negative = inhibition) at 10uM” value is -18.4%.

For the compound `CCN(CC)c1ccc(/C=N/NC(=O)c2cc(C)nc3ccccc23)cc1`, the “hERG current change (%, negative = inhibition) at 10uM” value is -6.45%.

For the compound `CC(=O)c1cccc(NC(=O)c2ccc(CN3CCc4ccccc4C3)cc2)c1`, the “hERG current change (%, negative = inhibition) at 10uM” value was -6.26%.

Regarding `CCn1c(=O)cc(SCC(=O)NCc2ccc3c(c2)OCO3)c2ccccc21`, the “hERG current change (%, negative = inhibition) at 10uM” value was -25.2%. Under `COC(=O)c1ccccc1NC(=O)CSc1nc(NC(=O)c2ccccc2)c2c(C)c(C)oc2n1` stands 15.6%; under `CCCCSc1[nH]c(=O)c(C(=O)OCC)cc1C#N`, -3.9%; under `NC(=O)c1ccc[n+](CC(=O)c2cccc([N+](=O)[O-])c2)c1.[Br-]`, 16.9%. Under `O=C(COC(=O)c1ccc(-c2ccccc2)cc1)Nc1ccccc1-c1ccccc1` stands 5.61%.
